This is one part of the list.
B1: PhoQ; a variant is named by its letters at X, in order, P23837 (parent)
chain: MKKLLRLFFPLSLRVRFLLATAAVVLVLSLAYGMVALIGYSVSFDKTTFRLLRGESNLFYTLAKWENNKLHVELPENIDKQSPTMTLIYDENGQLLWAQRDVPWLMKMIQPDWLKSNGFHEIEADVNDTSLLLSGDHSIQQQLQEVREDDDDAEMTHSVAVNVYPATSRMPKLTIVVVDTIPVELKSSYMVWSWFIYVLSANLLLVIPLLWVAAWWSLRPIEALAKEVRELEEHNRELLNPATTRELTSLVRNLNRLLKSERERYDKYRTTLTDLTHSLKTPLXXLQXXLRSLRSEKMSVSDAEPVMLEQISRISQQIGYYLHRASMRGGTLLSRELHPVAPLLDNLTSALNKVYQRKGVNISLDISPEISFVGEQNDFVEVMGNVLDNACKYCLEFVEISARQTDEHLYIVVEDDGPGIPLSKREVIFDRGQRVDTLRPGQGVGLAVAREITEQYEGKIVAGESMLGGARMEVIFGRQHSAPKDE

Variants of: B1
Test: enrichment ratio after two sorts for PhoP signalling (ratio (wild type AVST 3.29)); higher = more functional
Settings: with PhoP (E. coli)

Row | Variant | enrichment ratio
1 | YPGW | ≤ 0.25
2 | KDRE | ≤ 0.25
3 | TTKR | ≤ 0.25
4 | YGHN | ≤ 0.25
5 | DNRW | ≤ 0.25
6 | EGNI | ≤ 0.25
7 | QVCA | ≤ 0.25
8 | IRWA | ≤ 0.25
9 | WEQW | ≤ 0.25
10 | IQYT | ≤ 0.25
11 | TRPI | ≤ 0.25
12 | HAIK | ≤ 0.25
13 | WRMF | ≤ 0.25
14 | GPIQ | ≤ 0.25
15 | WMHI | ≤ 0.25
16 | SVDP | ≤ 0.25
17 | DTYS | ≤ 0.25
18 | RVIL | ≤ 0.25
19 | VLHV | ≤ 0.25
20 | KGMS | ≤ 0.25
21 | NDCI | ≤ 0.25
22 | TWDP | ≤ 0.25
23 | DGHR | ≤ 0.25
24 | PQAF | ≤ 0.25
25 | HNFP | ≤ 0.25

Row | Variant | enrichment ratio
26 | RYRF | ≤ 0.25
27 | WQTN | ≤ 0.25
28 | MRHH | ≤ 0.25
29 | VFID | ≤ 0.25
30 | RQNY | ≤ 0.25
31 | MRYF | ≤ 0.25
32 | DKMI | ≤ 0.25
33 | QLRQ | ≤ 0.25
34 | SDGN | ≤ 0.25
35 | QWTF | ≤ 0.25
36 | LFII | ≤ 0.25
37 | DFNI | ≤ 0.25
38 | HCLD | ≤ 0.25
39 | SCEN | ≤ 0.25
40 | TCYF | ≤ 0.25
41 | DERD | ≤ 0.25
42 | DRSH | ≤ 0.25
43 | WGQR | ≤ 0.25
44 | GDHF | ≤ 0.25
45 | VFRN | ≤ 0.25
46 | TAHR | ≤ 0.25
47 | DSAV | ≤ 0.25
48 | YPRN | ≤ 0.25
49 | NLNV | ≤ 0.25
50 | TGRW | ≤ 0.25

Row | Variant | enrichment ratio
51 | SMRD | ≤ 0.25
52 | LETA | ≤ 0.25
53 | FWRD | ≤ 0.25
54 | LAMG | 2.14
55 | SISK | 12.1
56 | WFCN | ≤ 0.25
57 | MVVI | ≤ 0.25
58 | WWSA | ≤ 0.25
59 | RQPE | ≤ 0.25
60 | GDTD | ≤ 0.25
61 | IMIC | ≤ 0.25
62 | FQCN | ≤ 0.25
63 | LMFA | ≤ 0.25
64 | NLVD | ≤ 0.25
65 | IAKD | ≤ 0.25
66 | ADFL | ≤ 0.25
67 | HCEP | ≤ 0.25
68 | DHDI | ≤ 0.25
69 | PPQE | ≤ 0.25
70 | INNG | ≤ 0.25
71 | KYLM | ≤ 0.25
72 | PMRY | ≤ 0.25
73 | GMNS | ≤ 0.25
74 | HGVK | ≤ 0.25
75 | APWK | ≤ 0.25

Row | Variant | enrichment ratio
76 | GDAS | ≤ 0.25
77 | WRIF | ≤ 0.25
78 | QRTQ | ≤ 0.25
79 | RDNN | ≤ 0.25
80 | AVFM | ≤ 0.25
81 | YKSL | ≤ 0.25
82 | LLLK | ≤ 0.25
83 | MLMR | ≤ 0.25
84 | LSAR | ≤ 0.25
85 | LFQC | ≤ 0.25
86 | MIYA | ≤ 0.25
87 | EIPS | ≤ 0.25
88 | WICM | ≤ 0.25
89 | EHIN | ≤ 0.25
90 | FGIS | ≤ 0.25
91 | MART | ≤ 0.25
92 | DFTM | 3.33
93 | IKCN | ≤ 0.25
94 | YNQK | ≤ 0.25
95 | QEFK | ≤ 0.25
96 | DSLR | ≤ 0.25
97 | QRHD | ≤ 0.25
98 | KRIE | ≤ 0.25
99 | VHVI | ≤ 0.25
100 | DMPE | ≤ 0.25

Row | Variant | enrichment ratio
101 | EDAN | ≤ 0.25
102 | KDDA | ≤ 0.25
103 | LYAP | ≤ 0.25
104 | NFPE | ≤ 0.25
105 | DWCT | ≤ 0.25
106 | MVWN | 13.3
107 | AMAE | 0.326
108 | NPHA | ≤ 0.25
109 | LRLG | ≤ 0.25
110 | KFGH | ≤ 0.25
111 | WDYI | ≤ 0.25
112 | ERSA | ≤ 0.25
113 | RLIA | ≤ 0.25
114 | DKLM | ≤ 0.25
115 | IAKR | ≤ 0.25
116 | IPCI | ≤ 0.25
117 | TRND | ≤ 0.25
118 | PGNQ | ≤ 0.25
119 | PKYR | ≤ 0.25
120 | KRIK | ≤ 0.25
121 | YALP | ≤ 0.25
122 | GLMR | ≤ 0.25
123 | GPLH | ≤ 0.25
124 | AAFN | ≤ 0.25
125 | YPNE | ≤ 0.25

Row | Variant | enrichment ratio
126 | VKMW | ≤ 0.25
127 | WHNR | ≤ 0.25
128 | SFYG | ≤ 0.25
129 | QHMG | ≤ 0.25
130 | HMRA | ≤ 0.25
131 | DCNL | ≤ 0.25
132 | MRLD | ≤ 0.25
133 | HGLC | 2.19
134 | FCSQ | ≤ 0.25
135 | QTLQ | ≤ 0.25
136 | YLKD | ≤ 0.25
137 | QRRC | ≤ 0.25
138 | IMAY | ≤ 0.25
139 | RFFE | ≤ 0.25
140 | LEFR | ≤ 0.25
141 | LFWV | ≤ 0.25
142 | TKGY | 6.36
143 | EDYT | ≤ 0.25
144 | LMTP | ≤ 0.25
145 | TEHI | 14.2
146 | GMHT | ≤ 0.25
147 | RWAH | ≤ 0.25
148 | TPDD | ≤ 0.25
149 | FHFK | ≤ 0.25
150 | VTSS | ≤ 0.25

Row | Variant | enrichment ratio
151 | TNWW | ≤ 0.25
152 | MCWE | ≤ 0.25
153 | QEDQ | ≤ 0.25
154 | SHVP | ≤ 0.25
155 | QDLP | ≤ 0.25
156 | LIQN | ≤ 0.25
157 | MNWL | 10
158 | PWGC | ≤ 0.25
159 | RGPF | ≤ 0.25
160 | EALL | 5.01
161 | HICW | ≤ 0.25
162 | DYHD | ≤ 0.25
163 | PIIS | ≤ 0.25
164 | KNHH | ≤ 0.25
165 | SNIM | ≤ 0.25
166 | RSGM | ≤ 0.25
167 | LMWE | ≤ 0.25
168 | GENN | ≤ 0.25
169 | MASG | 1.26
170 | NCPE | ≤ 0.25
171 | LCNQ | ≤ 0.25
172 | AHNW | ≤ 0.25
173 | MIMP | ≤ 0.25
174 | VCYS | 0.518
175 | ARNC | ≤ 0.25

Row | Variant | enrichment ratio
176 | NGMF | ≤ 0.25
177 | INQR | ≤ 0.25
178 | HADK | ≤ 0.25
179 | RWLV | ≤ 0.25
180 | TIYY | ≤ 0.25
181 | MCTK | ≤ 0.25
182 | MRNN | ≤ 0.25
183 | SEAW | 0.438
184 | NAMN | ≤ 0.25
185 | TALA | 13.8
186 | DPAN | ≤ 0.25
187 | RHPW | ≤ 0.25
188 | VKGC | ≤ 0.25
189 | PEHH | ≤ 0.25
190 | DKWL | ≤ 0.25
191 | GGAA | ≤ 0.25
192 | KQWN | ≤ 0.25
193 | GLHA | ≤ 0.25
194 | MCIH | ≤ 0.25
195 | QALV | 7.32

Source: a collection of fitness landscapes (doi:10.1126/science.1257360)
